The full ranking holds about 1,800 sequences; the median of “median log2 fold change of GCK-ALFA target abundance (FLAG IP / Myc IP barcode read proportion)” is about 0.14, and the lowest 2% start at about -0.84. The list shows a part of the results.
B1: traf2_out_6_156_2397 (protein)
chain: MVEEILEETKKKIEELIKELSKASEEEKIKYINKIAGTVYRGLQRLREAGASVEEIEEFGKEILEFTEKKLKEEGIDEDTRNLILSSLQAVIDVAIEAAK
B2: traf2_out_13_95_1142 (protein)
chain: SKEVAEKIMEIADEMLEEKDKILKELEEELKKKGLLTPELKKALEEARNSSISTAIHILQELSKKYPEAKELLDKAIEELEKIKREAGRKVAEILKEEKE
B3: traf2_out_9_17_2604 (protein)
chain: AAARARRRERLLAAVREVLEELVERGYITEEQAEEILEKVRALLDAGASPDEVIAHTLGMIASILLTKSDLSLSEVNRVVGEAYRKLREGRRALEAEEAA
B4: traf2_out_11_155_739 (protein)
chain: EEKLKLNQEMNDKIMELFEKAREEADAILAEAAAAHPEHAAAIAALREATRGFSYRSYILSAIELFRELGLEEEAARLEALLEETQKKANEIVKETEKKL
B5: traf2_out_13_95_1215 (protein)
chain: SAEANEKLRKVSNDMLDEVEAIVDDLAAALAPHPETQPAMDAIRAALRRNGVNAAIAAIRAAAAAHPEVAAAFDAAAAALEAVRRKAGEEVAKILKEEEE
B6: traf2_out_17_178_1678 (protein)
chain: SKEEQRKKISEYTDKLIDLTERTGAEFLARAEAEGTLSPEELAALRAARRRGSNRTFLALARRAAPKLASAAEAAALLAAFEAEARELSKKIAEEYEKYE
B7: traf2_out_18_3_1908 (protein)
chain: KEEERKKLTDEIDKIEDEARARAARELARLAAEHPEVAAELAALRADLEAGGGAFGVLEALAELARRLGDEERAAEIEEFLRKKRKEFQKLVDEYEKLIE
B8: traf2_out_3_89_2297 (protein)
chain: SAAYEAKLKEAKENAERYVKGFEKSATYVAKEMIKDGHSLDTIKGVLNAARSALVEELRRSLKERGLSQEDIDEIVKKAKEELDKIVEKVVEEAEKERKA
B9: traf2_out_6_156_2407 (protein)
chain: MVEEIFEEAMKEIKELIKKLSEASEEKKISYISKIAGTFYRALQRLREAGASVEELEEFIKRMMEKIKEWLDEEGLPEDIKNLILSSLKAVGDVALEEAK
B10: traf2_out_20_3_2161 (protein)
chain: SELEKKAQEALDEAIALLAEAAKLADPETAKRLEALRARVEASRELSPDDRLVVLSEVRREVLALAEEARRAGREELAAVLEEAADALNKAMNLTYKIIE
B11: traf2_out_17_162_1625 (protein)
chain: SPYEEKKKKFQEELEKIRKKVKELKEKAKKIEELSKEELTDLLVEASEAKRKALELKEELEELKKKYNDEELDKLIKEAEKLAEEFQKIANLFYKKLLEK
B12: traf2_out_13_95_1174 (protein)
chain: EEEKTKKEREIASEAYDEREEVMTAYKEAVVALLGDPAAAALMDEVVRNMNEFTLEHATAQLVAAHPEKAAELQALRDEALAKMKEINKKYTEKLNEIEK
B13: traf2_out_9_108_2585 (protein)
chain: MSEEEKEEELFEKVKELVEEFLEEVDLSEELKEQLKAAIEQAEKLYEEGLKRTANILLAIDLASIAYEVGEEAVEWVLKRLKEIDERLYSAAERRVKLLK
B14: traf2_out_14_154_1268 (protein)
chain: DELWDELEYHSAMRRLYDSVVESLETMSREETKAHLDAATAIVTARVPEKAAEIKATAAEIKAKLDGSEEEVAALKEELKAKAEEHAKKAREAYEKILKE
B15: traf2_out_16_104_1385 (protein)
chain: SAATQAQFDAIIARLNAIADRANRLANRIYKLYEKASPEKKKELSDLLVEVSELRREALAAAIAAEQARAAGGDPAEAQAALDKLEARLAALEKRLAELE
B16: traf2_out_20_8_2271 (protein)
chain: SAEEKHLLEAADLVLDAAELAAAIVKRVLADERAPEIAAEVRAGLAVSVSIDDTPAQILERIAERVDEVLDRLEARTGDPRLRVAREEIRRALAERAAAA
B17: traf2_out_12_161_940 (protein)
chain: SSEHFQELSDVANKAFDKAQEIVDRVAEVSPALRPTFLAVARSLTLPVEEARAILDAAIAAHEAELTPEQLAEVRALGDELLAIQKEAQEEIKKIQEKYR

Target: T1, TRAF2, Q12933
T1 chain: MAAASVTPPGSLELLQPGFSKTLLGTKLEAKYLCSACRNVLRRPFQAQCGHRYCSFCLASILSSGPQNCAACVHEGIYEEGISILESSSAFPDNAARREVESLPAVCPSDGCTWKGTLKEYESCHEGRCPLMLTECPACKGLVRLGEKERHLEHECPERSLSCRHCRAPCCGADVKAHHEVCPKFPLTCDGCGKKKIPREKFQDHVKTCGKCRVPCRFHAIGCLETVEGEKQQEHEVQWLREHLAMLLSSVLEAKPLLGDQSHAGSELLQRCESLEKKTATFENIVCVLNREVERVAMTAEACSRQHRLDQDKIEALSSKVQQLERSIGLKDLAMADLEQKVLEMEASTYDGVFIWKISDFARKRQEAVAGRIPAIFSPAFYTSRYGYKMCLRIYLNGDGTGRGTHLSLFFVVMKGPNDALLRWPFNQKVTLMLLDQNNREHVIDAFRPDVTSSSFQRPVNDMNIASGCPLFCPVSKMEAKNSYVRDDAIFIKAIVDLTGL
Assay: median log2 fold change of GCK-ALFA target abundance (FLAG IP / Myc IP barcode read proportion) (log2 ratio); each designed protein is fused to an ALFA-tag nanobody in HEK293 cells to bring the named protein to FLAG-tagged glucokinase (GCK); Myc marks an untargeted standard; higher = target protein stabilised (more abundant)
Settings: target protein: 3xFLAG-MCP-GCK-ALFA reporter; HEK293 landing pad (RPLP)
How it was run: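 Binders fused to an ALFA nanobody were recombined as a library into HEK293 landing-pad cells, which were induced with 2 μg mL^−1 doxycycline and then transfected to express a FLAG-tagged target and a Myc-tagged standard. After 48 h, circular RNA barcodes recovered by anti-FLAG and anti-Myc immunoprecipitation of lysates were reverse transcribed, amplified and sequenced. Each binder's target abundance is the median log2 ratio of FLAG to Myc barcode read proportions, from barcodes present at ≥10^−7 in both replicates, binders carrying ≥3 barcodes per replicate, a 10^−6 pseudocount and pooled replicates.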

| Binder | median log2 fold change |
| --- | --- |
| B1 | 0.175 |
| B2 | -0.444 |
| B3 | -0.257 |
| B4 | 0.298 |
| B5 | 0.154 |
| B6 | -0.408 |
| B7 | 0.235 |
| B8 | -0.184 |
| B9 | 0.175 |
| B10 | 0.236 |
| B11 | -0.0863 |
| B12 | 0.311 |
| B13 | 0.0402 |
| B14 | -0.104 |
| B15 | 0.103 |
| B16 | -0.0343 |
| B17 | -1.56 |

Source: the supplement of paper PMC12632987
